Reference: patent US20180118829A1
Results are given in words; binding and its absence hold for the method and conditions named. Some entries that bind do so weakly or less than the wild type.

Protein sequences, listed by entry. Tags and fused reporters are not part of them. Lines headed by an entry give the natural chain unless they say otherwise; changes in a name come on top.
UniProt Q9NZQ7: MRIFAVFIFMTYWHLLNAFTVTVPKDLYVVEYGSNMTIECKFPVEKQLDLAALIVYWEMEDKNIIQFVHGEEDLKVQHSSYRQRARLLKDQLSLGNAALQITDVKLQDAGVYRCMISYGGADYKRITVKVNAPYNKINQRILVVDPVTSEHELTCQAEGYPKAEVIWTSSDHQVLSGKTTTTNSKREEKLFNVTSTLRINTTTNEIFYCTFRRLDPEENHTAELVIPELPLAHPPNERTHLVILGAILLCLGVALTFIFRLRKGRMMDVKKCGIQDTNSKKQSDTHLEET
UniProt Q9BQ51: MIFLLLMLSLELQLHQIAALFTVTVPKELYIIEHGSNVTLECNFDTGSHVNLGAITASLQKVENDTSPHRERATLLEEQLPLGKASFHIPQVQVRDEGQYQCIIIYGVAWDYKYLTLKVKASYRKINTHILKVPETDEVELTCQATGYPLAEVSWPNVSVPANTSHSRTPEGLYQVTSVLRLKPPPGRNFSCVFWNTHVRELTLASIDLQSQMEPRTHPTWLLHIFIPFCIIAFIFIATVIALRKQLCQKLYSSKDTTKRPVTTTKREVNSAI

Tests used:
[1] = molecular target: Human PD-1 L128A ECD-Fc-His6 (human); test: BLI (ForteBio OctetRED96), PD-1 ECD-Fc-His6 panel; Reduced = affinity reduced >10-fold and <100-fold vs WT human PD-1
[2] = molecular target: Mouse PD-1 ECD-Fc-His6 (mouse); test: BLI (ForteBio OctetRED96), PD-1 ECD-Fc-His6 panel; Y = affinity within ~5-fold of WT human PD-1
[3] = molecular target: Human PD-1 A132L ECD-Fc-His6 (human); test: as above
[4] = molecular target: Human PD-1 extracellular domain (ECD)-Fc-His6 (human); test: as above
[5] = molecular target: Human PD-1 N33-Q167 ECD-Fc-His6 (human); test: as above
[6] = molecular target: Cynomolgus monkey PD-1 ECD-Fc-His6 (cynomolgus monkey); test: as above
[7] = molecular target: Human PD-1 I126A ECD-Fc-His6 (human); test: condition: affinity reduced by >100-fold vs wild-type human PD-1; BLI (ForteBio OctetRED96), PD-1 ECD-Fc-His6 panel
[8] = molecular target: Human PD-1 K78A ECD-Fc-His6 (human); test: as above
[9] = molecular target: Human PD-1 I134A ECD-Fc-His6 (human); test: as above
[10] = molecular target: Human PD-1 I126A ECD-Fc-His6 (human); test: BLI (ForteBio OctetRED96), PD-1 ECD-Fc-His6 panel; Y = affinity within ~5-fold of WT human PD-1
[11] = molecular target: Human PD-1 L128A ECD-Fc-His6 (human); test: as above
[12] = molecular target: Human PD-1 I134A ECD-Fc-His6 (human); test: as above

| binding [1] | binding [2] | binding [3] | binding [4] | binding [5] | binding [6] | binding [7] | binding [8] | binding [9] | binding [10] | binding [11] | binding [12] | Substance |
| --- | --- | --- | --- | --- | --- | --- | --- | --- | --- | --- | --- | --- |
| binds | binds | binds | binds | binds | binds | no binding | no binding | no binding | – | – | – | PD-L1 Fc Fusion (from UniProt Q9NZQ7 19-238) |
| – | binds | binds | binds | binds | binds | – | no binding | – | binds | binds | binds | PD-L2 Fc Fusion (from UniProt Q9BQ51 20-220) |
